Consider 47 compounds from PubChem BioAssay AID1508623 (National Center for Advancing Translational Sciences (NCATS), 2021).

Hit rate of the full screen: of about 48,000 compounds, about 450 (0.94%) were called active. Another 19% or so got no clear call; they are omitted. The call rests on the fitted dose curve; in most records, active means well fitted inhibition curve with a large enough effect; inconclusive means small, poorly fitted or top-dose-only effect; inactive means no such curve, though single readings can be large or run the other way. Some of the results follow.

This test is described as follows: Primary qHTS for Identification of Small Molecule Inhibitors of Huntingtin Promoter Activity. Further: nearly all actives have a fitted effect of over 50% in size. Conditions: HEK293 HTT promoter firefly luciferase reporter (activity 0% = vehicle and -100% = no light), 24 h; series mostly up to 57.5 µM; activity change, negative = inhibition: at the top concentration. The method in brief: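 HEK293 cells carrying firefly luciferase reporters were seeded at 2,500 per well in Opti-MEM and cultured for 24 h. They were then treated with compounds at up to 57.5 uM final for 24 h at 37 degrees C before Dual-Glo luminescence readout.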
As for `CCc1ccc(Nc2cc(C(=O)NCCCN(C)c3ccccc3)c3ccccc3n2)cc1`, the “activity change, negative = inhibition” value was inactive: 1.35%.

For the compound `COc1ccc(NC(=O)Cn2cc(C(=O)C3CCCCC3)c3ccccc32)cc1`, the “activity change, negative = inhibition” value was inactive: -21.2%.

`COc1ccc(Cl)cc1NC(=O)N1CCC(CN2CCCCCC2)CC1`: the “activity change, negative = inhibition” value is inactive: -10.5%.

As for `Cc1cccc(Cn2cc(C(=O)Nc3ccc(S(N)(=O)=O)cc3)ccc2=O)c1`, the “activity change, negative = inhibition” value was inactive: -1.2%.

`CCCCNC(=O)CN1C(=O)COc2ccc(S(=O)(=O)N3CCCC3)cc21`: the “activity change, negative = inhibition” value was inactive: -8.28%.

For `COc1ccc(CNC(=O)CN2C(=O)CSc3ccc(S(=O)(=O)N4CCCC4)cc32)cc1`, the “activity change, negative = inhibition” value was inactive: -5.18%.

As for `CC1=C(C(=O)OCC2CCCCC2)C(c2ccc(Cl)cc2Cl)CC(=O)N1` (configuration not stated), the “activity change, negative = inhibition” value is inactive: -14.7%.

Regarding `CSc1cccc(NC(=O)Cn2cnc(S(=O)(=O)N3CCCC3)c2)c1`, the “activity change, negative = inhibition” value is inactive: -20.7%.

Consider `O=C(Nc1ccccc1OCc1cc(=O)n2ccccc2n1)c1ccccc1F`, for which the “activity change, negative = inhibition” value was inactive: 6.81%.

`CCCn1c2ccccc2c2cnn(CC(=O)NCc3cc(OC)ccc3OC)c(=O)c21`: the “activity change, negative = inhibition” value is inactive: 5.53%.

`COC(=O)c1ccc(Cn2nnc3sc4c(c3c2=O)CCCC4)cc1`: the “activity change, negative = inhibition” value was inactive: 26.9%.

Regarding `COc1cc2nc(Nc3ccc(F)cc3)nc(N)c2cc1OC`, the “activity change, negative = inhibition” value was inactive: -8.09%.

Regarding `COc1ccc(NC(=O)CN(C)S(=O)(=O)c2cccc3nsnc23)cc1`, the “activity change, negative = inhibition” value is inactive: -6.34%.

On to `COC(=O)N/N=C/c1c[n+]([O-])c2ccccc2[n+]1[O-]`, for which the “activity change, negative = inhibition” value is inactive: 7.42%.

On to `CCN(CC)c1ccc(NC(=O)c2cc3c(=O)n4cccc(C)c4nc3n2C)c(C)c1`, for which the “activity change, negative = inhibition” value was inactive: 0.0321%.

As to `Cc1cc(S(=O)(=O)NCC(c2ccc(N(C)C)cc2)N2CCOCC2)ccc1F` (configuration not stated), the “activity change, negative = inhibition” value was inactive: -3.58%.

Regarding `O=C(CSC1=Nc2ccccc2N=C(c2ccc(F)cc2)C1)NCc1ccc(Cl)cc1`, the “activity change, negative = inhibition” value is inactive: -27.3%.

With `CN(C(=O)CN(CCO)CC(=O)N(C)C(C)(C)Cc1ccccc1)C(C)(C)Cc1ccccc1`, the “activity change, negative = inhibition” value was inactive: -10.7%.

On to `CCn1nc(C)c2c(-c3ccccc3)cc(=O)n(C(C)C(=O)NCc3ccc(C)cc3)c21` (configuration not stated), for which the “activity change, negative = inhibition” value is inactive: -23%.

For the compound `CC(=O)c1ccc(NC(=O)c2nc3ccccc3n(C)c2=O)cc1`, the “activity change, negative = inhibition” value is inactive: 60.9%.

As to `CCCCCNC(=O)CCn1c(=O)[nH]c2ccccc2c1=O`, the “activity change, negative = inhibition” value was inactive: -12.8%.

Consider `Cc1[nH]c(=O)[nH]c(=O)c1S(=O)(=O)N1CCN(c2cccc(Cl)c2)CC1`, for which the “activity change, negative = inhibition” value is inactive: -1.1%.

With `Cc1ccc(CN(C(=O)COc2ccc(Cl)cc2Cl)C2CCS(=O)(=O)C2)o1` (configuration not stated), the “activity change, negative = inhibition” value was inactive: -17.7%.

Consider `Cc1ccc(C)c(CN2C(=O)CSc3ccc(C(=O)NCCc4ccc(Cl)cc4)cc32)c1`, for which the “activity change, negative = inhibition” value was inactive: -10.1%.

For `CCCNC(=O)Cn1nc(-c2ccc(C)c(C)c2)c2cnc3ccc(F)cc3c21`, the “activity change, negative = inhibition” value is inactive: -10.2%.

With `O=C(Nc1cccc(C(F)(F)F)c1)Nc1nnc(N2CCCCC2)s1`, the “activity change, negative = inhibition” value is inactive: 3.18%.

Take `N#Cc1c(Nc2cccc(F)c2)sc(C(=O)c2ccc(Cl)cc2)c1N`: the “activity change, negative = inhibition” value was inactive: 4.05%.

On to `CCN(c1ccccc1)S(=O)(=O)c1ccc2[nH]cc(C(=O)NCc3ccc(C)cc3)c(=O)c2c1`, for which the “activity change, negative = inhibition” value is inactive: -0.326%.

Take `Cc1cc(C)nc(NS(=O)(=O)c2ccc(N)cc2)n1`: the “activity change, negative = inhibition” value was inactive: 5.83%.

`COc1ccc(N2CC(NC(=O)c3ccc(OC(C)C)cc3)CC2=O)cc1` (configuration not stated): the “activity change, negative = inhibition” value was inactive: -13.9%.

As for `COc1ccccc1CNC(=O)CN1C(=O)CCn2nc(-c3ccccc3)cc21`, the “activity change, negative = inhibition” value was inactive: -20.7%.

For the compound `Cc1ccc(OCC(=O)Nc2ccc3nc(Nc4cccc(Cl)c4)cc(C)c3c2)cc1`, the “activity change, negative = inhibition” value was inactive: -3.17%.

In the case of `CCc1ccccc1NC(=O)Nc1cc(C(=O)NCc2ccc(OC)cc2)ccc1N1CCCC1`, the “activity change, negative = inhibition” value was inactive: -7.59%.

Consider `Cc1noc(C)c1S(=O)(=O)N1CCCC(C(=O)Nc2ccc(C(C)C)cc2)C1` (configuration not stated), for which the “activity change, negative = inhibition” value is inactive: 3.28%.

Regarding `O=C(c1ccccc1)n1nc(-c2ccco2)nc1NCc1ccccc1Cl`, the “activity change, negative = inhibition” value is inactive: -0.923%.

As to `COc1cc(NS(=O)(=O)c2ccc(N)cc2)ncn1`, the “activity change, negative = inhibition” value was inactive: 4.44%.

As to `CCOc1ccc(CCNC(=O)C2CCC(CNS(=O)(=O)c3ccc(Cl)cc3)CC2)cc1OCC` (configuration not stated), the “activity change, negative = inhibition” value was inactive: -20.6%.

Take `COc1cccc(-n2cc(C(=O)Nc3cc(C)c(Cl)cc3OC)c3ccccc3c2=O)c1`: the “activity change, negative = inhibition” value is inactive: -20.9%.

`CCOc1ccc(CNC(=O)C2CCN(c3nn4c(=O)cc(C)nc4s3)CC2)cc1`: the “activity change, negative = inhibition” value was inactive: -14.9%.

`CO[C@H]1C=CO[C@@]2(C)Oc3c(C)c(O)c4c(O)c(c(C=NN5CCN(C)CC5)c(O)c4c3C2=O)NC(=O)C(C)=CC=C[C@H](C)[C@H](O)[C@@H](C)[C@@H](O)[C@@H](C)[C@H](OC(C)=O)[C@H]1C`: the “activity change, negative = inhibition” value was inactive: -4.23% [at 19.1 µM].

Turning to `CC1(C)O[C@@H]2C[C@H]3[C@@H]4C[C@H](F)C5=CC(=O)C=C[C@]5(C)[C@@]4(F)[C@@H](O)C[C@]3(C)[C@]2(C(=O)CO)O1`, the “activity change, negative = inhibition” value is inactive: 7.82%.

As to `CCOCCCNC(=O)c1cc2c(=O)[nH]c3ccccc3c2n1C`, the “activity change, negative = inhibition” value is inactive: 8.18%.

On to `CCCCOC(=O)c1ccc(Nc2nnc(-n3nc(C)cc3C)c3ccccc23)cc1`, for which the “activity change, negative = inhibition” value was inactive: -23.1%.

Regarding `Cc1nnc2c3ccccc3nc(Nc3cccc(O)c3)n12`, the “activity change, negative = inhibition” value is inactive: 5.99%.

With `O=C(NC1CC(=O)N(c2ccc(Cl)cc2)C1)c1ccc(S(=O)(=O)N2CCOCC2)cc1` (configuration not stated), the “activity change, negative = inhibition” value is inactive: -28.2%.

`COc1cc(C2C(C(=O)Nc3ccccc3)=C(C)Nc3nnnn32)cc(OC)c1OC` (configuration not stated): the “activity change, negative = inhibition” value is inactive: -8.18%.

In the case of `COc1ccc(-c2noc(CN(C(=O)c3cc(OC)c(OC)cc3OC)C(C)C)n2)cc1`, the “activity change, negative = inhibition” value was inactive: -19.9%.
